Molecules are shown by their SMILES. Among all 310,000 compounds or so, about 14,000 (4.5%) showed an effect of 50% or more. The effect is printed as a negative number. This is one part of the list.
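Note: peak tail current of the secondary pulse compared with the same well before compound.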

In the experiment the target is human ether-à-go-go-related gene (hERG) potassium channel (human, UniProt Q12809). Kind of experiment: primary screen, population patch clamp on CHO cells stably expressing hERG.
human ether-à-go-go-related gene (hERG) potassium channel, sequence (Q12809 whole entry, looked up): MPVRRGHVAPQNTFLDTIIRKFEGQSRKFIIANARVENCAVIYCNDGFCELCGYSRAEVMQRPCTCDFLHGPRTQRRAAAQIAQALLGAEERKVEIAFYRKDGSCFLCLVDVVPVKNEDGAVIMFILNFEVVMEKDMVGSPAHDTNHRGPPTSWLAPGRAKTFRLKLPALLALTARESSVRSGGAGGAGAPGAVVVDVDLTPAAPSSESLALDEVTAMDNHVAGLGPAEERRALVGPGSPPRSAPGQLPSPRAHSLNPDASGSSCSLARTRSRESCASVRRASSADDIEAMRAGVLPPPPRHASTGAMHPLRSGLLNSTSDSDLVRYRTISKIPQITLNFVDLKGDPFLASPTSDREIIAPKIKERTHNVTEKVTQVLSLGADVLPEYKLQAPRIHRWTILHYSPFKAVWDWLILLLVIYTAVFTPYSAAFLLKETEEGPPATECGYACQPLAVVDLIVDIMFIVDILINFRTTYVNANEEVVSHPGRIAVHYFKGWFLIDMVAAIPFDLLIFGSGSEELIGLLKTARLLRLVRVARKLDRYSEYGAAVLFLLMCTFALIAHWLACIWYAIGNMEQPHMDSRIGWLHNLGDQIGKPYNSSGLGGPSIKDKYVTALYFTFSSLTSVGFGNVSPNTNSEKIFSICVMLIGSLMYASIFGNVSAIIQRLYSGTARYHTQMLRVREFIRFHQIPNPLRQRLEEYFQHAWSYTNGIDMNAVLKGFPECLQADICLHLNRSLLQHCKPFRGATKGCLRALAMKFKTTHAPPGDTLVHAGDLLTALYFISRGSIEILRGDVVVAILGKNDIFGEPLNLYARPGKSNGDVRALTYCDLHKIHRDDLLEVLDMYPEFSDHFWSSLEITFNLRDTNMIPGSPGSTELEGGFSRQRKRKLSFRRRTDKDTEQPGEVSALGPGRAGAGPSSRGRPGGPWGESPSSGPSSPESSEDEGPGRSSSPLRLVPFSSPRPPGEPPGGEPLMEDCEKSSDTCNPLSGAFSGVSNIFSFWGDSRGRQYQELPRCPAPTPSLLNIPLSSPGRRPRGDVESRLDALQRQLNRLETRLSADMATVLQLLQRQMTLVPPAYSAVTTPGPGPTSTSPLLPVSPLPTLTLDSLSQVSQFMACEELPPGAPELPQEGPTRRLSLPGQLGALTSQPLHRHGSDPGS
In the case of `Cc1c(F)cccc1NS(=O)(=O)c1ccccc1C#N`, the “hERG current change (%, negative = inhibition) at 10uM” value is given as -2.21%.
As to `Cc1ccc(NC(=O)CCc2c(C)[nH]c(=O)c(C#N)c2C)cc1`, the “hERG current change (%, negative = inhibition) at 10uM” value was determined as 6.35%.
As for `CC(C)n1cnc2c(=S)nc[nH]c21`, the “hERG current change (%, negative = inhibition) at 10uM” value came out at 18.9%.
For the compound `CC12CCC(C(=O)N(CCCCN3CCN(Cc4ccccc4)CC3)C1=O)C2(C)C.Cl` (stereo not drawn), the “hERG current change (%, negative = inhibition) at 10uM” value is -45.2%.
Regarding `Cc1cc(C)c2nc3c(c(C(=O)O)c2c1)CCC3`, the “hERG current change (%, negative = inhibition) at 10uM” value turned out to be 10.4%.
Turning to `CC(=O)NC(CCS(C)(=O)=O)C(=O)Nc1cccc(C)c1` (stereo not drawn), the “hERG current change (%, negative = inhibition) at 10uM” value is reported as 1.27%.
Regarding `COc1ccc(NC(=O)c2cc(C)on2)cc1`, the “hERG current change (%, negative = inhibition) at 10uM” value was found to be 9.74%.
As for `COc1cccc(C(C)NC(=O)Nc2ccccc2Cl)c1` (stereo not drawn), the “hERG current change (%, negative = inhibition) at 10uM” value was -5.63%.
With `COc1ccc(/C(C)=C(\C#N)C(=O)OC(C)C)cc1OC`, the “hERG current change (%, negative = inhibition) at 10uM” value is given as -3.32%.
`COCCCNCC(O)C(F)(F)F` (stereo not drawn): the “hERG current change (%, negative = inhibition) at 10uM” value is 10.8%.
As for `CC(=O)c1cccc(N(C(=O)c2ccccn2)C(C(=O)NC2CCCCC2)c2ccccc2)c1` (stereo not drawn), the “hERG current change (%, negative = inhibition) at 10uM” value was determined as 5.77%.
Take `CCOc1ccc(OCCC(=O)N(CC)CC(=O)Nc2ccccc2C(F)(F)F)cc1`: the “hERG current change (%, negative = inhibition) at 10uM” value is -22.5%.
As for `COc1ccccc1C(=O)Nc1ccnn1C1CCN(Cc2ccc3nonc3c2)CC1`, the figure is -72.1%; as for `CCOc1ccc(Cl)cc1S(=O)(=O)n1cnc2cc(C)c(C)cc21`, -1.31%.
In the case of `CCC1CCCCN1C(=O)CSc1nc2ncccc2[nH]1` (stereo not drawn), the “hERG current change (%, negative = inhibition) at 10uM” value is 12.3%.
On to `C/C(=N\N=C1/NC(=O)C(C)S1)c1ccco1` (stereo not drawn), for which the “hERG current change (%, negative = inhibition) at 10uM” value stood at 22.5%.
To `CCCOc1ccc(N2C(=O)CC(N3CCC(c4nncn4CC)CC3)C2=O)cc1` (stereo not drawn) belongs -1.14%; to `Cc1ccc(C)c(-c2nnc(OCC(=O)Nc3cc(C)on3)c3ccccc23)c1`, -25.2%.
On to `CCSc1ccccc1C(=O)Nc1cccc(OC)c1`, for which the “hERG current change (%, negative = inhibition) at 10uM” value was -3.62%.
Take `CNC(=S)NNC(=O)COc1ccc(C)c(C)c1`: the “hERG current change (%, negative = inhibition) at 10uM” value was found to be 14%.
In the case of `Cc1ccc(S(=O)(=O)n2c([N+](=O)[O-])cnc2C)c(C)c1C`, the “hERG current change (%, negative = inhibition) at 10uM” value came out at 41.4%.
For the compound `Cc1sc2ncnc(N3CCC(C(=O)Nc4ccc(Br)cc4Br)CC3)c2c1C`, the “hERG current change (%, negative = inhibition) at 10uM” value was -7.07%.
Turning to `CCc1nnc(NC(=O)CSc2nnc3c4ccccc4n(C)c3n2)s1`, the “hERG current change (%, negative = inhibition) at 10uM” value is reported as 3.8%.
For the compound `Cc1cccc(-c2noc(CCC(=O)NCc3ccco3)n2)c1`, the “hERG current change (%, negative = inhibition) at 10uM” value was -4.37%.
Consider `C/C(=N\NC(=O)c1c(Cl)c(C)nn1C)c1cccc(NC(=O)COc2ccccc2)c1`, for which the “hERG current change (%, negative = inhibition) at 10uM” value is reported as 2.21%.
As to `COc1cc([N+](=O)[O-])ccc1NC(=O)CCCOc1cccc(C)c1C`, the “hERG current change (%, negative = inhibition) at 10uM” value is recorded as -3.24%.
For `COc1ccccc1N1CCN(C(=O)CCCNC(=O)Cn2cnc3sc(C)c(C)c3c2=O)CC1`, the “hERG current change (%, negative = inhibition) at 10uM” value was -3.03%.
Take `[O-]/[N+](=C/c1ccccc1)c1ccccc1`: the “hERG current change (%, negative = inhibition) at 10uM” value worked out at 15.1%.
As for `CN(Cc1c(C(=O)N/N=C/c2ccc(O)cc2)nnn1-c1nonc1N)c1ccccc1`, the “hERG current change (%, negative = inhibition) at 10uM” value turned out to be 20.6%.
In the case of `O=C(CC1SC(N2CCOCC2)=NC1=O)Nc1ccccc1Cl` (stereo not drawn), the “hERG current change (%, negative = inhibition) at 10uM” value came out at 16.2%.
As for `COc1cc(C(C)=O)ccc1COc1ccc(C(=O)OC(C)C(=O)NC(N)=O)cc1OC` (stereo not drawn), the figure is 0.338%.
With `CC1(C)Oc2ccc(C(=O)NC3CCCC3)cc2N(CC(=O)NC2CCCCC2)C1=O`, the “hERG current change (%, negative = inhibition) at 10uM” value is on record as 9.12%.
In the case of `O=C(O)c1ccc(CSc2nnc(-c3ccccc3Br)o2)cc1`, the “hERG current change (%, negative = inhibition) at 10uM” value was 10.5%.
Consider `COc1cccc(C(=S)N2CCCC2)c1OC`, for which the “hERG current change (%, negative = inhibition) at 10uM” value is 14.9%.
`Cc1cc(C)n(CCN(C)C(=O)CCc2nnc(CCC3CCCCC3)o2)n1`: the “hERG current change (%, negative = inhibition) at 10uM” value is -4.29%.
On to `N#Cc1cccnc1N1CCN(C(=O)c2cccc3c2C(=O)c2ccc(Cl)cc2S3(=O)=O)CC1`, for which the “hERG current change (%, negative = inhibition) at 10uM” value is on record as -56.6%.
For `O=C(Cc1ccccc1)Nc1ccc(-c2nnc(-c3ccco3)o2)cc1`, the “hERG current change (%, negative = inhibition) at 10uM” value is on record as -2.62%.
As for `Cc1ccc(S(=O)(=O)Nc2cc3c(C(=O)Nc4ccccc4)c(C)oc3c3ccccc23)cc1`, the figure is 4.88%.
Take `Cc1ccc(OCC(=O)Nc2ccccc2[N+](=O)[O-])c(Br)c1`: the “hERG current change (%, negative = inhibition) at 10uM” value turned out to be 38.3%.
In the case of `O=C(O)COc1ccccc1-c1ccccc1`, the “hERG current change (%, negative = inhibition) at 10uM” value was found to be 18.2%.
Regarding `C=C[C@@H]1c2cc(C)ccc2N(S(=O)(=O)c2ccc(C)cc2)[C@H](c2ccc(OC(C)=O)cc2)C1(C#N)C#N`, the “hERG current change (%, negative = inhibition) at 10uM” value was determined as 11.7%.
Take `Cn1nc(-c2ccccc2)c(C(O)c2ccccc2C(F)(F)F)c1Cl` (stereo not drawn): the “hERG current change (%, negative = inhibition) at 10uM” value is 26.3%.
Regarding `COc1cccc(C(C(=O)NC2CCCCC2)N(C(=O)c2ccco2)c2ccccc2OC)c1` (stereo not drawn), the “hERG current change (%, negative = inhibition) at 10uM” value is reported as -42%.
In the case of `Cn1cc(CNCC2CCCO2)c(-c2ccc(Oc3ccccc3)cc2)n1` (stereo not drawn), the “hERG current change (%, negative = inhibition) at 10uM” value is recorded as -30.1%.
To `CC(C)OC(=O)c1c(NC(=O)c2ccco2)sc2c1CCCC2` belongs 0.68%.

These data come from article PMC4336329 (PLoS ONE, 2015).
